Source: PubChem BioAssay (NCATS)
Inconclusive results, whose numbers are uncertain, are shown with a selection of clear calls. Potencies of inconclusive entries are doubtful fits and often do not repeat. The source made the active and inactive calls. The call rests on the fitted dose curve; in most records, active means well fitted curve in the direction sought with a large enough effect; inconclusive means small, poorly fitted or top-dose-only effect, or another doubt; inactive means no such curve, though single readings can be large; an effect the other way counts as inactive or inconclusive.

Test system: not listed separately
Assay: P-glycoprotein substrates identified in KB-8-5-11 adenocarcinoma cell line, qHTS therapeutic library screen (AID 1346987); further: nearly all actives have a fitted effect of over 65% in size
Details: KB-8-5-11 (P-gp overexpressing) viability, CellTiter-Glo, 72 h; activity change, negative = cytotoxicity: at 44.5 µM (top of the series); series mostly up to 44.5 µM
In short: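 KB-8-5-11: colchicine-selected sub-line of KB-3-1 over-expressing P-gp; assay medium lacked colchicine. 72 h drug exposure at 37 degree C, CellTiter-Glo.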
On the % scale 0 is the no-effect control and ±100 the full control effect; potency means the concentration at half of the fitted maximal effect; tags describe the fitted curve by direction and shape.

| Structure (SMILES) | Potency | activity change, negative = cytotoxicity | outcome |
| --- | --- | --- | --- |
| NC(=O)c1ncn([C@@H]2O[C@H](CO)[C@@H](O)[C@H]2O)n1 | inconclusive: 18.4 µM [inhibitor, single point] |  |  |
| CC(O)(CC(=O)O)CC(=O)O[C@@H]1[C@@H](O)[C@H](OCCc2ccccc2)O[C@H](CO)[C@H]1O (stereo partly drawn) |  | inactive: 0.385% [at 17.3 µM] |  |
| COC(O)(CC(C)C)C1Oc2cc(C)[nH]c(=O)c2O1 (stereo not drawn) |  |  | inactive |
| COC(=O)[C@H](O)[C@H]1C(C)(C)[C@H](OC(C)=O)[C@@]2(O)C(=O)[C@]1(C)C1CC[C@]3(C)C(CC(=O)O[C@H]3c3ccoc3)[C@]13O[C@@H]32 (stereo partly drawn) |  | inactive: -5.25% [at 17.3 µM] |  |
| CN1CCc2nc(C(=O)N[C@@H]3C[C@@H](C(=O)N(C)C)CC[C@@H]3NC(=O)C(=O)Nc3ccc(Cl)cn3)sc2C1 |  | inactive: 9.48% |  |
| C[C@]1(OC(=O)/C=C/c2ccccc2)C[C@@H](O)[C@]2(O)C=CO[C@@H](O[C@@H]3O[C@H](CO)[C@@H](O)[C@H](O)[C@H]3O)[C@@H]21 |  | inactive: 5.57% [at 17.3 µM] |  |
| Cc1ccc(COC(=O)N2CC[C@@H](CNc3ncccn3)[C@@H](F)C2)cc1 | inconclusive: 23.1 µM [inhibitor, partial curve] |  |  |
| CC(=O)N[C@H]1[C@H](O[C@H]2CC[C@@]3(C)C(CC[C@]4(C)C3CC=C3C5CC(C)(C)CC[C@]5(C(=O)O)[C@H](O[C@@H]5O[C@H](CO)[C@@H](O)[C@H](O)[C@H]5O)C[C@]34C)C2(C)C)O[C@H](CO[C@@H]2OC[C@H](O)[C@H](O)[C@H]2O[C@@H]2OC[C@@H](O)[C@H](O)[C@H]2O)[C@@H](O)[C@@H]1O (stereo partly drawn) |  |  | inactive [at 9.29 µM] |
| CC1(C)CC2C(C1)C(C)(O)C13CC1(COC3=O)C2O (stereo not drawn) |  | inactive: -11.5% |  |
| C/C(CO)=C1/CCC23COC(C2)C(O)(C(=O)O)CCC13 (stereo not drawn) |  | inactive: 7.41% |  |
| COC(=O)C1=COC(O[C@@H]2O[C@H](CO)[C@@H](O)[C@H](O)[C@H]2O)[C@@H]2[C@@](C)(O)[C@@H](OC(=O)/C=C/c3ccccc3)C[C@]12O (stereo partly drawn) |  | inactive: 0.85% [at 17.3 µM] |  |
| C/C=C(\C)C(=O)O[C@@H]1CC2[C@@H](CC=C3C[C@@H](O[C@H]4C[C@H](OC)[C@H](O[C@H]5C[C@H](OC)[C@H](O[C@@H]6O[C@H](C)[C@@H](O[C@H]7C[C@H](OC)[C@H](O[C@@H]8O[C@H](CO)[C@@H](O)[C@H](O)[C@H]8O)[C@@H](C)O7)[C@H](OC)[C@H]6O)[C@@H](C)O5)[C@@H](C)O4)CC[C@@]32C)[C@@]2(O)CC[C@H](C(C)=O)[C@@]12C (stereo partly drawn) |  |  | inactive [at 9.29 µM] |

Test system: not listed separately
Assay: qHTS of pediatric cancer cell lines to identify multiple opportunities for drug repurposing: Primary screen for MG 63 (6-TG R) cells (AID 1347105); further: nearly all actives have a fitted effect of over 50% in size
Details: MG 63 (6-TG R) viability, CellTiter-Glo, 48 h; activity change, negative = cytotoxic: at 46 µM (top of the series)
In short: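 CRCs from 8- or 11-point titrations (lowest final 0.59 nM NPC, 0.78 nM MIPE). Cell viability: CellTiter-Glo after 48 h incubation, 15 min room-temperature development, luminescence imaging.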

| Structure (SMILES) | Potency | activity change, negative = cytotoxic |
| --- | --- | --- |
| NC(=O)c1ncn([C@@H]2O[C@H](CO)[C@@H](O)[C@H]2O)n1 | inconclusive: 0.0266 µM [cytotoxic, full curve, poor fit] |  |
| O=C(OCCOCCO)c1ccccc1Nc1cccc(C(F)(F)F)c1 |  | inactive: -22.9% |
| O=c1[nH]c2cc(C(F)(F)F)c(N3CCOCC3)cc2n(CP(=O)(O)O)c1=O |  | inactive: -20.5% |

Test system: Zika virus NS2B-NS3 protease (unlinked complex)
Assay: Primary screen GU Rhodamine qHTS for Zika virus inhibitors: Unlinked NS2B-NS3 protease assay (AID 1347159); further: nearly all actives have a fitted effect of over 60% in size
Details: Recombinant ZIKV NS2B-NS3 protease, Rhodamine110 substrate fluorescence; activity change, negative = inhibition: at 107 µM (top of the series)
In short: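 Percent inhibition derives from the 15-min fluorescence change (ex 480, em 540 nm), normalized to no-enzyme and no-inhibitor wells. Reactions contained 25 nM NS2B-NS3 complex and 1.5 microM substrate in 10 mM Tris-HCl pH 8.0.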

| Structure (SMILES) | Potency | activity change, negative = inhibition |
| --- | --- | --- |
| C=C(C(=O)O)[C@@H]1CC=C2CCC[C@H](C)[C@@]2(C)C1 | inconclusive: 10 µM [inhibitor, full curve] |  |
| C[C@@H]1CC[C@]2(C(=O)O[C@@H]3O[C@H](CO)[C@@H](O)[C@H](O)[C@H]3O)CC[C@]3(C)C(=CCC4[C@@]5(C)C[C@@H](O)[C@H](O)[C@@](C)(C(=O)O[C@H]6[C@H](O)C[C@@]7(C)C(CC[C@]8(C)C7CC=C7[C@H]9[C@](C(=O)O[C@@H]%10O[C@H](CO)[C@@H](O)[C@H](O)[C@H]%10O)(CC[C@@H](C)[C@@]9(C)O)CC[C@]78C)[C@@]6(CO)C(=O)O)C5CC[C@]43C)[C@@H]2[C@]1(C)O (stereo partly drawn) |  | inactive: -16.4% [at 19.1 µM] |
| CC(=O)N[C@H]1[C@H](O[C@H]2CC[C@@]3(C)C(CC[C@]4(C)C3CC=C3C5CC(C)(C)CC[C@]5(C(=O)O)[C@H](O[C@@H]5O[C@H](CO)[C@@H](O)[C@H](O)[C@H]5O)C[C@]34C)C2(C)C)O[C@H](CO[C@@H]2OC[C@H](O)[C@H](O)[C@H]2O[C@@H]2OC[C@@H](O)[C@H](O)[C@H]2O)[C@@H](O)[C@@H]1O (stereo partly drawn) | inconclusive: 15.8 µM [inhibitor, partial curve, poor fit] |  |
| C=C[C@@](C)(CCC=C(C)C)O[C@@H]1O[C@H](CO[C@@H]2OC[C@H](O)[C@H](O)[C@H]2O)[C@@H](O)[C@H](O)[C@H]1O |  | inactive: -11.5% [at 57.1 µM] |
| COc1cc2c(cc1O)C(c1ccc(O)cc1)C(C)C(C)C2 (stereo not drawn) | active: 39.8 µM |  |
| Cc1cc(C)c2nc(-c3ccccn3)cc(C(=O)Nc3ccc(S(=O)(=O)Nc4onc(C)c4C)cc3)c2c1 | active: 2 µM |  |
| C=C1C(O)CC2C(C(=O)O)=COC(OC3OC(CO)C(O)C(O)C3OC(=O)/C=C\c3ccc(O)cc3)C12 (stereo not drawn) | inconclusive: 5.01 µM [inhibitor, partial curve, poor fit] |  |
| CC(C)c1ccc2c(c1)C(=O)CC1[C@@](C)(C(=O)O)CCC[C@]21C (stereo partly drawn) | inconclusive: 20 µM [inhibitor, full curve, poor fit] |  |
